# Assay results as given in the supplement of paper PMC8728848.
# The other results are listed elsewhere or left out.
# B1: Neuropilin-1 (Rattus norvegicus), Q9QWJ9 (protein)
# chain: MERGLPLLCATLALALALAGAFRSDKCGGTIKIENPGYLTSPGYPHSYHPSEKCEWLIQAPEPYQRIMINFNPHFDLEDRDCKYDYVEVIDGENEGGRLWGKFCGKIAPSPVVSSGPFLFIKFVSDYETHGAGFSIRYEIFKRGPECSQNYTAPTGVIKSPGFPEKYPNSLECTYIIFAPKMSEIILEFESFDLEQDSNPPGGVFCRYDRLEIWDGFPEVGPHIGRYCGQKTPGRIRSSSGILSMVFYTDSAIAKEGFSANYSVLQSSISEDFKCMEALGMESGEIHSDQITASSQYGTNWSVERSRLNYPENGWTPGEDSYREWIQVDLGLLRFVTAVGTQGAISKETKKKYYVKTYRVDISSNGEDWITLKEGNKAIIFQGNTNPTDVVFGVFPKPLITRFVRIKPASWETGISMRFEVYGCKITDYPCSGMLGMVSGLISDSQITASNQGDRNWMPENIRLVTSRTGWALPPSPHPYINEWLQVDLGDEKIVRGVIIQGGKHRENKVFMRKFKIAYSNNGSDWKMIMDDSKRKAKSFEGNNNYDTPELRAFTPLSTRFIRIYPERATHSGLGLRMELLGCEVEVPTAGPTTPNGNPVDECDDDQANCHSGTGDDFQLTGGTTVLATEKPTIIDSTIQSEFPTYGFNCEFGWGSHKTFCHWEHDSHAQLRWRVLTSKTGPIQDHTGDGNFIYSQADENQKGKVARLVSPVVYSQSSAHCMTFWYHMSGSHVGTLRVKLHYQKPEEYDQLVWMVVGHQGDHWKEGRVLLHKSLKLYQVIFEGEIGKGNLGGIAVDDISINNHIPQEDCAKPTDLDKKNTEIKIDETGSTPGYEEGKGDKNISRKPGNVLKTLDPILITIIAMSALGVLLGAVCGVVLYCACWHNGMSERNLSALENYNFELVDGVKLKKDKLNPQSNYSEA
# How the values were obtained:
# Assay in all cases: glycan array binding signal (z-score within array); higher = stronger binding
# Details in all cases: glycan notation: IUPAC condensed, linker removed
# [1] = molecular target: Neu5Ac(a2-3)Gal(b1-4)[Fuc(a1-3)]GlcNAc(b1-3)GalNAc
# Summary of the method: (§1)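 Glycan array data were curated from 3228 arrays in the Consortium for Functional Glycomics database and kept only where the protein sequence was available. Glycan names were converted to IUPAC-condensed notation, and columns mapping to the same glycan were averaged. The binding signal is a within-array Z-score, averaged across arrays of the same protein sequence at different concentrations or buffers and across linkers. Negative Z-scores can be read as non-binding.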
# [2] = molecular target: Neu5Ac(a2-3)Gal(b1-4)[Fuc(a1-3)]GlcNAc(b1-6)[Gal(b1-3)]GalNAc
# Summary of the method: as §1
# [3] = molecular target: Neu5Ac(a2-3)Gal(b1-4)[Fuc(a1-3)]GlcNAc(b1-6)[Neu5Ac(a2-3)Gal(b1-3)]GalNAc
# Summary of the method: as §1
# [4] = molecular target: Neu5Ac(a2-3)Gal(b1-4)[Fuc(a1-3)]GlcNAc6S
# Summary of the method: as §1
# [5] = molecular target: Neu5Ac(a2-3)Gal6S(b1-4)GlcNAc
# Summary of the method: as §1
# [6] = molecular target: Neu5Ac(a2-3)Gal6S(b1-4)[Fuc(a1-3)]GlcNAc
# Summary of the method: as §1
# Neu5Ac(a2-3)GalNAc = molecular target: Neu5Ac(a2-3)GalNAc
# Summary of the method: as §1
# [7] = molecular target: Neu5Ac(a2-3)GalNAc(b1-4)GlcNAc
# Summary of the method: as §1
# [8] = molecular target: Neu5Ac(a2-3)[GalNAc(b1-4)]Gal(b1-4)Glc
# Summary of the method: as §1
# [9] = molecular target: Neu5Ac(a2-3)[GalNAc(b1-4)]Gal(b1-4)GlcNAc
# Summary of the method: as §1
# [10] = molecular target: Neu5Ac(a2-3)[Neu5Ac(a2-6)]GalNAc
# Summary of the method: as §1
# Neu5Ac(a2-6)Gal = molecular target: Neu5Ac(a2-6)Gal
# Summary of the method: as §1
# Neu5Ac(a2-6)Gal(b1-4)Glc = molecular target: Neu5Ac(a2-6)Gal(b1-4)Glc
# Summary of the method: as §1
# [11] = molecular target: Neu5Ac(a2-6)Gal(b1-4)GlcNAc
# Summary of the method: as §1
# [12] = molecular target: Neu5Ac(a2-6)Gal(b1-4)GlcNAc(b1-2)Man(a1-3)Man(b1-4)GlcNAc(b1-4)GlcNAc
# Summary of the method: as §1
# [13] = molecular target: Neu5Ac(a2-6)Gal(b1-4)GlcNAc(b1-2)Man(a1-3)[Gal(b1-4)GlcNAc(b1-2)Man(a1-6)]Man(b1-4)GlcNAc(b1-4)GlcNAc
# Summary of the method: as §1
# [14] = molecular target: Neu5Ac(a2-6)Gal(b1-4)GlcNAc(b1-2)Man(a1-3)[GlcNAc(b1-2)Man(a1-6)]Man(b1-4)GlcNAc(b1-4)GlcNAc
# Summary of the method: as §1
# [15] = molecular target: Neu5Ac(a2-6)Gal(b1-4)GlcNAc(b1-2)Man(a1-3)[GlcNAc(b1-2)Man(b1-4)GlcNAc(b1-2)Man(a1-6)]Man(b1-4)GlcNAc(b1-4)GlcNAc
# Summary of the method: as §1
# [16] = molecular target: Neu5Ac(a2-6)Gal(b1-4)GlcNAc(b1-2)Man(a1-3)[Man(a1-6)]Man(b1-4)GlcNAc(b1-4)GlcNAc
# Summary of the method: as §1
# [17] = molecular target: Neu5Ac(a2-6)Gal(b1-4)GlcNAc(b1-2)Man(a1-3)[Neu5Ac(a2-6)Gal(b1-4)GlcNAc(b1-2)Man(a1-6)]Man(b1-4)GlcNAc(b1-4)GlcNAc
# Summary of the method: as §1
# [18] = molecular target: Neu5Ac(a2-6)Gal(b1-4)GlcNAc(b1-2)Man(a1-6)Man(b1-4)GlcNAc(b1-4)GlcNAc
# Summary of the method: as §1
# [19] = molecular target: Neu5Ac(a2-6)Gal(b1-4)GlcNAc(b1-2)Man(a1-6)[Gal(b1-4)GlcNAc(b1-2)Man(a1-3)]Man(b1-4)GlcNAc(b1-4)GlcNAc
# Summary of the method: as §1
# [20] = molecular target: Neu5Ac(a2-6)Gal(b1-4)GlcNAc(b1-2)Man(a1-6)[GlcNAc(b1-2)Man(a1-3)]Man(b1-4)GlcNAc(b1-4)GlcNAc
# Summary of the method: as §1
# [21] = molecular target: Neu5Ac(a2-6)Gal(b1-4)GlcNAc(b1-2)Man(a1-6)[Man(a1-3)]Man(b1-4)GlcNAc(b1-4)GlcNAc
# Summary of the method: as §1
# [22] = molecular target: Neu5Ac(a2-6)Gal(b1-4)GlcNAc(b1-3)Gal(b1-3)GlcNAc
# Summary of the method: as §1
# [23] = molecular target: Neu5Ac(a2-6)Gal(b1-4)GlcNAc(b1-3)Gal(b1-4)GlcNAc
# Summary of the method: as §1
# [24] = molecular target: Neu5Ac(a2-6)Gal(b1-4)GlcNAc(b1-3)Gal(b1-4)GlcNAc(b1-3)Gal(b1-4)GlcNAc
# Summary of the method: as §1
# [25] = molecular target: Neu5Ac(a2-6)Gal(b1-4)GlcNAc(b1-3)Gal(b1-4)[Fuc(a1-3)]GlcNAc(b1-3)Gal(b1-4)[Fuc(a1-3)]GlcNAc
# Summary of the method: as §1
# [26] = molecular target: Neu5Ac(a2-6)Gal(b1-4)GlcNAc(b1-3)GalNAc
# Summary of the method: as §1
# [27] = molecular target: Neu5Ac(a2-6)Gal(b1-4)GlcNAc6S
# Summary of the method: as §1
binder,measurement,setting,value
B1,glycan array binding signal (z-score),[1],3.21
same,glycan array binding signal (z-score),[2],8.12
same,glycan array binding signal (z-score),[3],4.25
same,glycan array binding signal (z-score),[4],-0.279
same,glycan array binding signal (z-score),[5],-0.331
same,glycan array binding signal (z-score),[6],-0.289
same,glycan array binding signal (z-score),Neu5Ac(a2-3)GalNAc,-0.28
same,glycan array binding signal (z-score),[7],-0.197
same,glycan array binding signal (z-score),[8],-0.256
same,glycan array binding signal (z-score),[9],-0.318
same,glycan array binding signal (z-score),[10],-0.162
same,glycan array binding signal (z-score),Neu5Ac(a2-6)Gal,-0.18
same,glycan array binding signal (z-score),Neu5Ac(a2-6)Gal(b1-4)Glc,-0.329
same,glycan array binding signal (z-score),[11],-0.267
same,glycan array binding signal (z-score),[12],-0.309
same,glycan array binding signal (z-score),[13],-0.15
same,glycan array binding signal (z-score),[14],-0.223
same,glycan array binding signal (z-score),[15],-0.316
same,glycan array binding signal (z-score),[16],-0.165
same,glycan array binding signal (z-score),[17],-0.229
same,glycan array binding signal (z-score),[18],-0.211
same,glycan array binding signal (z-score),[19],-0.223
same,glycan array binding signal (z-score),[20],-0.255
same,glycan array binding signal (z-score),[21],-0.073
same,glycan array binding signal (z-score),[22],-0.267
same,glycan array binding signal (z-score),[23],-0.308
same,glycan array binding signal (z-score),[24],-0.034
same,glycan array binding signal (z-score),[25],-0.262
same,glycan array binding signal (z-score),[26],-0.232
same,glycan array binding signal (z-score),[27],-0.311
